Reference: the RNAGym collection of RNA variant scans (doi:10.7554/elife.90254)
Read counts are not given, so values of variants with three or more changes are uncertain.

B1: OR4K15 (parent)
chain: GUUAACGGUCAUAGGCCAUGGAAACUAGGAGCACCAUUUCGCUGCCAGUGAAGAAAUGAACAAAGAAAAUCUGGGCCAGGCAGGCAUCAAAAGAAAUAGUCUUGCGCUCAACCAGAAAGUCUGUAAUCAUUUUAAGGGUA

Variants of: B1
Assay: self-cleavage, relative activity (ratio to wild type); higher = more cleavage; in vitro, sequencing; the parent is a self-cleaving ribozyme

Variant	self-cleavage
C6A A11C U72C A92G A96G	0.08
G7U A13U U103A	0.58
A5G U26C A62G A82U	0.15
G7A A55G U130C	1.38
A5U A52G A90G	1.66
A5U A18U U37C A51G	0.84
A5U G21A A66G	1.87
A5G U37C U70C U87A U108C	0.03
A5G A67G U70A	1.35
G7U A94G A118G	1.14
A5G U37C A66G A90G	1.74
A5G U57C A96G	0.43
A5G G41U A92G A114G A126G	0.11
A5G A66G U120C U124C	0.44
A5G C16U U122C	0.69
A5G U37C G136A	1.25
A5G A52G A92G A114G	0.87
A5G A33C A47G U103C	0.61
C6U A63U A90G A129G	0.23
G7A A69U G115A C121U A129U	0.06
A5G C34U C77U A89G	1.42
A5G A30G U120C	1.06
A5G U9C U49C U100C	1.34
C6G A89G U108C	0.02

Variant	self-cleavage
G7U A90G A114U	0
C6A C32A A68G A140G	1.63
C6U A13U A47U A54G A64U A89G C112A U139C	0.03
A5G A116U A126C	0.03
G7A A27G A30G A129G	0.39
A5G A52G U72A A90U U124C	0.1
G7A A13G A18G U100A	0.26
A5G U37C A67G	1.24
C6U A62G A114G A126G A135G	0.3
G7A A18U A114U	0.07
A5G U43C U49C A68G G75U	0.21
G7A A23G A33U C61U A69G G74C A82G	0.22
A5G A69U U102C	1.32
A5G U38A A69G U133C	1.16
A5G U102C U124C A135U	1.48
G7U A91G A98G U103C	0.09
A5G U9C U38C U39A U72A A92G A117G	0.25
C6A U19C A63U	0
A5U U49C G79U G106A	0.03
A5U A36G A51U A78G G136A	0.56
A5G U38C A82U A91G C121U U132C	0.21
A5G A67G U100C U127C U131C	2.14
A5G A55G U70C A78U A86G	0.21
G7A U37C A129G U132C	0.83

Variant	self-cleavage
A5U A51G A52G U87C	1.31
C6U U12A A22U U130G	1.09
G7A C81G A82C	0.17
A5U C17U A86G U87A A96G	0.98
A5G A33G A118G	0.6
A5G U38C A62U A78G U124C	0.2
A5G U70C U87C A91G A92G U122A U132C	0.21
A5U A54G A69U A89U	1.77
A5G A94G A111G	0.06
A5G U38G A135G	1.13
A5G U37C G58U U130C	0.7
C6A A13U U39C U57A G136A	0.87
A5G U19C A82G A96G U102C A116G A129G	0.34
G7U U9G A89G	1.78
A5G U38C A92G U108C	0
C6U A23G C34U U39C U43C U49C U70C U87C	1.23
A5G A114G U122C	0.13
A5U A60G A118U	0.76
A5G C17U A23G U87C U100C A118G U122C A135U	0.13
A5G U38C C46A A95G A116G	1.15
G7U A55G U57C A135U	1.3
A5U A59G A116U A118G A135G	0.2
G7A U9C U37C A55G U102C	1.65
C6A A18U U57C U103C A111C	0.02

Variant	self-cleavage
A5G U38C G44A A69G	1.37
C6A U97C U130C	1.4
A5G U103C G104U	0.05
A5G A56G A78G C81U	0.25
A5G C17A A23G A96G	1.44
A5G U19C U43A A51G U87C A90G	0.27
C6A A66G A69U U124A	0.2
C6U A54G U130C	0.65
A5G G28A A63G	0.71
A5G U26C U87C A96U U102C U108A U131A	0
A5G A111G A118G	0
A5U U72C A111G G138C U139C	0.01
A5G G31A A68G	1.02
G7A A54G A66G	2.43
C6U A23G A52G	0.41
A5U A47C A98G A110G	0.06
A5G U26C U38C U102A U103G C109U A110C	0.04
A5G U49C A60G U108C A116G U127C A134G	0.02
A5G U37C A67G C112A	0
A5G U43G A90G U108A	0.05
A5G U57G U108C	0.01
G7A U43A A96G	2.09
G7U A64G A69G A96G U122C	1.34
A5G C32G U102A	0.65

Variant	self-cleavage
A5U A36G A56G A64G	1.56
A5G A86U C107G	0.17
A5U A90G A116U U131C A140G	0.09
A5G A33G A60G U87A	0.6
A5U A91G U139A	1.2
C6U G20A G104A A134G	0.08
G7A A23G A33C U43C A118C A126G U130C U139C	0.57
A5G C61A A117G	1.31
A5G A59C A116G A126G A134G	0.21
A5G U37C A62G G80U C88U	0.12
A5G U12A A69G	1.28
A5G A56G A94G	1.29
C6U A55G A67C	0.94
A5G A33G A52G	0.41
A5G C32U A52G A111G A116G G138A	0.08
A5G A51G A68G U133C	2.15
A5U A67G C101A	0.3
A5G A60G A62G A78G U87C	0.09
C6U U12C U26C A30G A86G U103C A140U	0.3
A5U A62G A82U	0.26
A5G U9C A52G G106A	0.06
A5U G31A U100C	1.73
A5G A33G A51G	1.08
C6U U9C A60G A64U A91G	0.82

Variant	self-cleavage
A5U A22G G75U U87A C109U A117G	0.03
G7A A18G G31C U38C A90G A114U	0.15
A5G U87C A96U	2.4
A5G U38A A60U A62C A82G U100C	1.17
A5U U12C A33G A62G	1.39
A5U A23C C40U A52G A91U	1.71
A5G U9C A78U A126G	0.3
A5G A36U A69U A82G A117G	0.6
A5G A62G A66G	1.09
G7A A64G A92G A116G	1.47
A5G A68G A78G	0.37
G7A A62G A110G	0.23
A5G U19A A64U	0.82
A5G A68U A95G A110U	1.45
A5G A60U A114G A125G	0.56
C6U A56G U97A U108C A125G	0.01
A5U A18G A24G U39C G44A A92G U102C	2.27
C6U A13U U37C A59G A114G	0.31
A5U G15U A63G A67G U102C A129G	1.31
G7A A90G A94G	0.77
A5G U39C U108C A126U	0.02
G7A A86G A89G U120G	2.29
A5U U70C A91U U103C	0.35
A5G A60U A116G A126C	0.41

Variant	self-cleavage
G7A A22U U87C A118U	0.64
A5G A52G A111U	0.2
A5G A82U G104A U122C U131C	0.01
A5G A59G U97C	1.13
A5G U12C C40U A96G	0.72
G7A U19C A23U	1.47
C6U A51U G106U	0.05
A5G A63G A96G	0.68
A5U A64G A117U	0.44
A5G A55G U120A	1.32
A5G G31C U37C	1.48
A5G A90G A117G U133A	1.1
C6U U9C A13G U57C G75C	0.54
G7A A11U A36G U70C A94U A95G A111G A118G	0.01
A5G A47G A66G U108A A111G	0.03
A5G A36G U43C A66G A129G	0.59
A5U A47U A56G U100C U120A	2.44
G7A U12C C40U A55G U122C U127A	0.74
A5G U37C A62G A111G	0.09
A5U U57A A95G C112U	0.06
A5G U70A U97C A114U	0
G7C A23G U26A U43C	1.01
A5G U72C A78U G106U A110G A117G U122C A134G	0
